{"source": "the supplement of paper PMC8728848", "experiment_in_all_cases": "glycan array binding signal (z-score within array); higher = stronger binding", "conditions_in_all_cases": "glycan notation: IUPAC condensed, linker removed", "key": {"[1]": {"molecular_target": "Gal6S(b1-4)Glc6S", "in_short": "(§1)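 Glycan array data were curated from 3228 arrays in the Consortium for Functional Glycomics database and kept only where the protein sequence was available. Glycan names were converted to IUPAC-condensed notation, and columns mapping to the same glycan were averaged. The binding signal is a within-array Z-score, averaged across arrays of the same protein sequence at different concentrations or buffers and across linkers. Negative Z-scores can be read as non-binding.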"}, "[2]": {"molecular_target": "Gal6S(b1-4)GlcNAc", "in_short": "as §1"}, "[3]": {"molecular_target": "Gal6S(b1-4)GlcNAc6S", "in_short": "as §1"}, "[4]": {"molecular_target": "GalNAc(a1-3)Gal", "in_short": "as §1"}, "[5]": {"molecular_target": "GalNAc(a1-3)GalNAc", "in_short": "as §1"}, "[6]": {"molecular_target": "GalNAc(a1-3)GalNAc(b1-3)Gal(a1-4)Gal(b1-4)Glc", "in_short": "as §1"}, "[7]": {"molecular_target": "GalNAc(a1-3)GalNAc(b1-3)Gal(a1-4)Gal(b1-4)GlcNAc", "in_short": "as §1"}, "[8]": {"molecular_target": "GalNAc(b1-3)Gal", "in_short": "as §1"}, "[9]": {"molecular_target": "GalNAc(b1-3)Gal(a1-4)Gal(b1-4)GlcNAc", "in_short": "as §1"}, "[10]": {"molecular_target": "GalNAc(b1-3)Gal(a1-4)Gal(b1-4)GlcNAc(b1-3)Gal(b1-4)Glc", "in_short": "as §1"}, "[11]": {"molecular_target": "GalNAc(b1-3)Gal(a1-6)Gal(b1-4)Glc", "in_short": "as §1"}, "[12]": {"molecular_target": "GalNAc(b1-3)GalNAc", "in_short": "as §1"}, "[13]": {"molecular_target": "GalNAc(b1-3)GlcNAc", "in_short": "as §1"}, "[14]": {"molecular_target": "GalNAc(b1-4)Gal(b1-4)Glc", "in_short": "as §1"}, "[15]": {"molecular_target": "GalNAc(b1-4)GlcNAc", "in_short": "as §1"}, "[16]": {"molecular_target": "GalNAc(b1-4)GlcNAc(b1-2)Man", "in_short": "as §1"}, "[17]": {"molecular_target": "GalNAc(b1-4)GlcNAc(b1-2)Man(a1-3)[GalNAc(b1-4)GlcNAc(b1-2)Man(a1-6)]Man(b1-4)GlcNAc(b1-4)GlcNAc", "in_short": "as §1"}, "[18]": {"molecular_target": "GalNAc(b1-4)GlcNAc(b1-3)GalNAc(b1-4)GlcNAc", "in_short": "as §1"}, "[19]": {"molecular_target": "GalNAc(b1-4)GlcNAc6S", "in_short": "as §1"}, "[20]": {"molecular_target": "GalNAc(b1-6)GalNAc", "in_short": "as §1"}, "[21]": {"molecular_target": "GalNAc3S(b1-4)GlcNAc", "in_short": "as §1"}, "[22]": {"molecular_target": "GalNAc3S(b1-4)GlcNAc3S", "in_short": "as §1"}, "[23]": {"molecular_target": "GalNAc3S(b1-4)[Fuc(a1-3)]GlcNAc", "in_short": "as §1"}, "[24]": {"molecular_target": "GalNAc4S6S(b1-4)GlcNAc", "in_short": "as §1"}, "[25]": {"molecular_target": "GalNAc6S(b1-4)GlcNAc", "in_short": "as §1"}, "[26]": {"molecular_target": "Glc(a1-4)Glc", "in_short": "as §1"}, "[27]": {"molecular_target": "Glc(a1-4)Glc(a1-4)Glc(a1-4)Glc", "in_short": "as §1"}, "[28]": {"molecular_target": "Glc(a1-6)Glc(a1-6)Glc", "in_short": "as §1"}, "[29]": {"molecular_target": "Glc(a1-6)Glc(a1-6)Glc(a1-6)Glc", "in_short": "as §1"}, "[30]": {"molecular_target": "Glc(b1-4)Glc", "in_short": "as §1"}, "[31]": {"molecular_target": "Glc(b1-6)Glc", "in_short": "as §1"}, "[32]": {"molecular_target": "GlcA(b1-3)Gal", "in_short": "as §1"}, "[33]": {"molecular_target": "GlcA(b1-3)GlcNAc", "in_short": "as §1"}, "[34]": {"molecular_target": "GlcA(b1-6)Gal", "in_short": "as §1"}, "[35]": {"molecular_target": "GlcA3S(b1-3)Gal(b1-4)GlcNAc(b1-2)Man", "in_short": "as §1"}, "[36]": {"molecular_target": "GlcA3S(b1-3)Gal(b1-4)GlcNAc(b1-3)Gal(b1-4)Glc", "in_short": "as §1"}, "[37]": {"molecular_target": "GlcNAc(a1-3)Gal(b1-4)GlcNAc", "in_short": "as §1"}, "[38]": {"molecular_target": "GlcNAc(a1-4)Gal(b1-3)GlcNAc", "in_short": "as §1"}, "[39]": {"molecular_target": "GlcNAc(a1-4)Gal(b1-4)GalNAc", "in_short": "as §1"}, "[40]": {"molecular_target": "GlcNAc(a1-4)Gal(b1-4)GlcNAc", "in_short": "as §1"}, "[41]": {"molecular_target": "GlcNAc(a1-4)Gal(b1-4)GlcNAc(b1-3)Gal(b1-4)Glc", "in_short": "as §1"}, "[42]": {"molecular_target": "GlcNAc(a1-4)Gal(b1-4)GlcNAc(b1-3)Gal(b1-4)GlcNAc", "in_short": "as §1"}, "[43]": {"molecular_target": "GlcNAc(a1-4)Gal(b1-4)GlcNAc(b1-3)Gal(b1-4)GlcNAc(b1-3)Gal(b1-4)GlcNAc", "in_short": "as §1"}, "[44]": {"molecular_target": "GlcNAc(a1-4)Gal(b1-4)GlcNAc(b1-3)Gal(b1-4)[Fuc(a1-3)]GlcNAc(b1-3)Gal(b1-4)[Fuc(a1-3)]GlcNAc", "in_short": "as §1"}, "[45]": {"molecular_target": "GlcNAc(a1-6)Gal(b1-4)GlcNAc", "in_short": "as §1"}}, "note": "Some of the results follow.", "data": [{"binder": "SBD-G4S3-SBD (protein) MASIPSSASVQLDSYNYDGSTFSGKIYVKNIAYSKKVTVVYADGSDNWNNNGNIIAASFSGPISGSNYEYWTFSASVKGIKEFYIKYEVSGKTYYDNNNSANYQVSTGGGGSGGGGSGGGGSEFASIPSSASVQLDSYNYDGSTFSGKIYVKNIAYSKKVTVVYADGSDNWNNNGNIIAASFSGPISGSNYEYWTFSASVKGIKEFYIKYEVSGKTYYDNNNSANYQVST", "values": [{"measurement": "glycan array binding signal (z-score)", "setting": "[1]", "value": -0.305}, {"measurement": "glycan array binding signal (z-score)", "setting": "[2]", "value": 4.01}, {"measurement": "glycan array binding signal (z-score)", "setting": "[3]", "value": 0.041}, {"measurement": "glycan array binding signal (z-score)", "setting": "[4]", "value": 1.05}, {"measurement": "glycan array binding signal (z-score)", "setting": "[5]", "value": -0.391}, {"measurement": "glycan array binding signal (z-score)", "setting": "[6]", "value": -0.403}, {"measurement": "glycan array binding signal (z-score)", "setting": "[7]", "value": -0.411}, {"measurement": "glycan array binding signal (z-score)", "setting": "[8]", "value": -0.339}, {"measurement": "glycan array binding signal (z-score)", "setting": "[9]", "value": -0.37}, {"measurement": "glycan array binding signal (z-score)", "setting": "[10]", "value": -0.385}, {"measurement": "glycan array binding signal (z-score)", "setting": "[11]", "value": -0.283}, {"measurement": "glycan array binding signal (z-score)", "setting": "[12]", "value": -0.346}, {"measurement": "glycan array binding signal (z-score)", "setting": "[13]", "value": -0.02}, {"measurement": "glycan array binding signal (z-score)", "setting": "[14]", "value": -0.124}, {"measurement": "glycan array binding signal (z-score)", "setting": "[15]", "value": -0.394}, {"measurement": "glycan array binding signal (z-score)", "setting": "[16]", "value": -0.336}, {"measurement": "glycan array binding signal (z-score)", "setting": "[17]", "value": 0.931}, {"measurement": "glycan array binding signal (z-score)", "setting": "[18]", "value": -0.38}, {"measurement": "glycan array binding signal (z-score)", "setting": "[19]", "value": -0.206}, {"measurement": "glycan array binding signal (z-score)", "setting": "[20]", "value": -0.383}, {"measurement": "glycan array binding signal (z-score)", "setting": "[21]", "value": -0.382}, {"measurement": "glycan array binding signal (z-score)", "setting": "[22]", "value": -0.383}, {"measurement": "glycan array binding signal (z-score)", "setting": "[23]", "value": -0.395}, {"measurement": "glycan array binding signal (z-score)", "setting": "[24]", "value": -0.365}, {"measurement": "glycan array binding signal (z-score)", "setting": "[25]", "value": -0.25}, {"measurement": "glycan array binding signal (z-score)", "setting": "[26]", "value": -0.323}, {"measurement": "glycan array binding signal (z-score)", "setting": "[27]", "value": 5.44}, {"measurement": "glycan array binding signal (z-score)", "setting": "[28]", "value": -0.409}, {"measurement": "glycan array binding signal (z-score)", "setting": "[29]", "value": -0.28}, {"measurement": "glycan array binding signal (z-score)", "setting": "[30]", "value": -0.278}, {"measurement": "glycan array binding signal (z-score)", "setting": "[31]", "value": -0.204}, {"measurement": "glycan array binding signal (z-score)", "setting": "[32]", "value": -0.434}, {"measurement": "glycan array binding signal (z-score)", "setting": "[33]", "value": -0.221}, {"measurement": "glycan array binding signal (z-score)", "setting": "[34]", "value": -0.148}, {"measurement": "glycan array binding signal (z-score)", "setting": "[35]", "value": -0.348}, {"measurement": "glycan array binding signal (z-score)", "setting": "[36]", "value": -0.303}, {"measurement": "glycan array binding signal (z-score)", "setting": "[37]", "value": -0.404}, {"measurement": "glycan array binding signal (z-score)", "setting": "[38]", "value": -0.314}, {"measurement": "glycan array binding signal (z-score)", "setting": "[39]", "value": -0.375}, {"measurement": "glycan array binding signal (z-score)", "setting": "[40]", "value": -0.29}, {"measurement": "glycan array binding signal (z-score)", "setting": "[41]", "value": -0.307}, {"measurement": "glycan array binding signal (z-score)", "setting": "[42]", "value": -0.255}, {"measurement": "glycan array binding signal (z-score)", "setting": "[43]", "value": -0.025}, {"measurement": "glycan array binding signal (z-score)", "setting": "[44]", "value": -0.205}, {"measurement": "glycan array binding signal (z-score)", "setting": "[45]", "value": -0.2}]}]}
